Test results taken from the supplement of paper PMC10126150.
Values marked as one replicate rest on one cluster of the flow cell; about a third of the high ones do not repeat.

Test system: ATP
Experiment: switch fluorescence ratio, 500 uM ATP over buffer (Cy3 cluster intensity, sum of 5 cycles each) (fold (ratio)); higher = stronger signal-on switching upon ATP binding; sequences stand for … in TCGTCGGCAGCGTCAGATGTGTATAAGAGACAGTTTTTTTTTTTTTTTTTTTTTTTTT…TC
Conditions: aptamer strand: ATP DNA aptamer (quencher-CACCTGGGGGAGTATTGCGGAGGAAGG + anchor), 100 nM annealed; ATP concentration: 500 uM; one replicate
How it was run: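 Exposure to 500 uM ATP lasted 15 min at 22 °C before imaging, and a selection-buffer image was taken beforehand, for Cy3-labelled switching-strand clusters on a modified Illumina MiSeq flow-cell annealed to 100 nM quencher-labelled ATP aptamer. Five buffer/ATP cycles were run with NaOH stripping and re-annealing between them. The fluorescence ratio per cluster is summed target-cycle over summed buffer-cycle Cy3 intensity, averaged per switch-domain sequence. Clusters outside 100-1000 RFU were excluded.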

AGGCTTCGCT
switch fluorescence ratio: 1

TTGTACTCGG
switch fluorescence ratio: 0.986

CACGACTGTT
switch fluorescence ratio: 0.973

CTTTCACGTT
switch fluorescence ratio: 0.964

CGAGACGGTT
switch fluorescence ratio: 1.06

TGTAGGGTCT
switch fluorescence ratio: 0.97

GGCTTTCTCC
switch fluorescence ratio: 1.97

ATTCGTTAC
switch fluorescence ratio: 1.12

TGCCCGCTTG
switch fluorescence ratio: 1.04

CTGCGGAGTA
switch fluorescence ratio: 1.03

TTAGACAGCA
switch fluorescence ratio: 1.03

TTATTGCAAT
switch fluorescence ratio: 1.09

TTGACAAGG
switch fluorescence ratio: 1.01

GACATCCTAA
switch fluorescence ratio: 1.03

CATCAGAACT
switch fluorescence ratio: 1.03

TCTCCGTATT
switch fluorescence ratio: 4.78

AAAAGCCTAC
switch fluorescence ratio: 1.11

GCGGACCCTT
switch fluorescence ratio: 1.04

ATTTTAGCGC
switch fluorescence ratio: 0.946

TGGAGTAAGG
switch fluorescence ratio: 1.01

AAGGACCCTC
switch fluorescence ratio: 1.03

TATTAAGTAA
switch fluorescence ratio: 1.02

GTTTGTTCAT
switch fluorescence ratio: 0.978

TTAGCTAAAG
switch fluorescence ratio: 1.02

CGAAATTTAG
switch fluorescence ratio: 0.998

GCCGTCGTTA
switch fluorescence ratio: 1.05

GAGGTGGGG
switch fluorescence ratio: 1.02

GTCGTGCCTT
switch fluorescence ratio: 0.995

ACACATAGTG
switch fluorescence ratio: 0.942

GCCCATATTA
switch fluorescence ratio: 1

TAGCCGTTGC
switch fluorescence ratio: 1

CCCCGCGCTT
switch fluorescence ratio: 3.99

TTTCAATCAG
switch fluorescence ratio: 0.986

GATGGTACTT
switch fluorescence ratio: 1.06

GTGAGTAATA
switch fluorescence ratio: 1.08

CACGTCTGAG
switch fluorescence ratio: 1.04

GGTCTAAGAT
switch fluorescence ratio: 0.979

AGAGGGCGAT
switch fluorescence ratio: 0.983

AGTTCTCGCG
switch fluorescence ratio: 1.03

GCAAAAGCA
switch fluorescence ratio: 1.03

GTTAGAAAGT
switch fluorescence ratio: 0.955

CCGATGTCTG
switch fluorescence ratio: 1.1

ATAGGGGAGG
switch fluorescence ratio: 1.02

ACACACTCTG
switch fluorescence ratio: 1.23

CGGGCCAGAC
switch fluorescence ratio: 1.26

ATAATGAAC
switch fluorescence ratio: 1.03

TCCTATAGAG
switch fluorescence ratio: 1.01

AATTGTACAT
switch fluorescence ratio: 1.01

GTAGAGCAGC
switch fluorescence ratio: 1.12

ACTGTTTACC
switch fluorescence ratio: 1.07

GACTCGGATA
switch fluorescence ratio: 1.04

AGGTGCTTAA
switch fluorescence ratio: 1.06

TGACACGCA
switch fluorescence ratio: 1.11

TCAGTTAAGT
switch fluorescence ratio: 0.977

ATCTAGGTAA
switch fluorescence ratio: 1.01

CCCTTAAGT
switch fluorescence ratio: 1

TCGTAATCC
switch fluorescence ratio: 2.22

GGGATGCTTT
switch fluorescence ratio: 0.976

ATATCCTGAT
switch fluorescence ratio: 1.01

AGGATATTTT
switch fluorescence ratio: 0.934

TTCTAAAGA
switch fluorescence ratio: 1.03

CCAAGTGAG
switch fluorescence ratio: 0.983

GATTATGTAC
switch fluorescence ratio: 1.08

GGCTTGGGGG
switch fluorescence ratio: 1.02

CGTACTAGGG
switch fluorescence ratio: 0.995

GGTGGACGCT
switch fluorescence ratio: 0.953

GTGCCTTCCA
switch fluorescence ratio: 1.37

TCCATGTGGG
switch fluorescence ratio: 1.02

CGCCTGTCAA
switch fluorescence ratio: 1.27

GTTAGGCATC
switch fluorescence ratio: 1.03

GTACCTGACC
switch fluorescence ratio: 1.79

GTTTTGTAGG
switch fluorescence ratio: 0.977

AATCTATGTG
switch fluorescence ratio: 1.02

GATATGCTCA
switch fluorescence ratio: 0.995

CTGGCTATCA
switch fluorescence ratio: 0.917

GAGTCTGGAA
switch fluorescence ratio: 1.25

TAGGAAGCCG
switch fluorescence ratio: 0.994

AGAAATAGGC
switch fluorescence ratio: 1.05

GGGCATTACG
switch fluorescence ratio: 1.12

CTCGAATAGC
switch fluorescence ratio: 1.18

GTTGGTAGTT
switch fluorescence ratio: 0.956

AACTGCGGCG
switch fluorescence ratio: 0.992

ACAGGATTGA
switch fluorescence ratio: 1.02

GCGCCTCCCA
switch fluorescence ratio: 1.04

GAGGTGTCTA
switch fluorescence ratio: 0.992
